# Experimental data: PubChem BioAssay AID1454 (National Center for Advancing Translational Sciences (NCATS), 2008)
# In all, about 130,000 compounds went through this assay and about 550 (0.42%) were called active. The shares of active, inactive and inconclusive entries below differ from those in the screen. Calls follow the shape of the dose curve; as a rule, active = well fitted inhibition curve with a large enough effect; inconclusive = small, poorly fitted or top-dose-only effect, or effect the other way; inactive = flat fitted curve, though single readings scatter. No potency is given beside an inconclusive call; the fits are too rough.
# Assay: qHTS Assay for Inhibitors of the ERK Signaling Pathway using a Homogeneous Screening Assay; Stimulation with EGF; also: nearly all actives have a fitted effect of over 55% in size;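 as to activity change, negative = inhibition: plate controls were stimulated vehicle wells for no effect and unstimulated vehicle basal for full effect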
# Settings: HEK293-V1b, EGF-stimulated phospho-ERK AlphaScreen; activity change, negative = inhibition: at the top concentration
# How it was run: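 Concentration-response of compounds against EGF-driven ERK phosphorylation in V1b-expressing HEK293 cells; 30 min preincubation, 5 min EGF, AlphaScreen detection; Normalized to DMSO basal and 25 nM EGF.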
# Potency is read from the fitted curve at half-maximal effect; tags tell the direction and shape of the fitted curve.
Structure (SMILES),"activity change, negative = inhibition",Potency
Cc1ccc(NC(=O)COC(=O)CN2C(=O)c3ccccc3C2=O)cc1S(=O)(=O)N(C)C,inactive: 1.8%,–
Cc1cc(C)n(C(=O)CCCCCCCC(=O)n2nc(C)cc2C)n1,–,"inconclusive [activator, single point]"
CN1CCN(CC(=O)Nc2nc(-c3c[nH]c4ccccc34)cs2)CC1,–,"inconclusive [inhibitor, single point]"
COc1cccc(CN2C(=O)c3cccc(N)c3C2=O)c1,–,"inconclusive [activator, partial curve, poor fit]"
Cc1cccc(NC(=O)CCCSc2nc3ccccc3[nH]2)c1,–,"inconclusive [inhibitor, single point]"
CNS(=O)(=O)c1cccc(C(=O)OCc2csc(-c3ccccc3)n2)c1,–,"inconclusive [inhibitor, single point]"
CC(C)N=c1scc(-c2cccs2)n1/N=C/c1ccc(O)c(O)c1O,–,"inconclusive [inhibitor, single point]"
O=C(CN1CCN(c2ccc(F)cc2)CC1)Nc1ccccc1[N+](=O)[O-],–,"inconclusive [inhibitor, partial curve]"
COc1ccccc1-c1cn[nH]c1-c1ccc(OCc2ccccc2F)cc1O,–,"inconclusive [inhibitor, single point]"
Cc1ccc(Nc2ncnc3ccccc23)cc1,–,active: 25.1 µM
Cc1nc2ccccn2c1C(=O)N=Nc1c(O)n(CCC(C)C)c2ccccc12,–,"inconclusive [inhibitor, single point]"
C/C(=N\Nc1ccc(C(F)(F)F)cc1[N+](=O)[O-])C1CC1,–,"inconclusive [inhibitor, partial curve]"
O=C(CCNC(=O)c1ccc(Br)o1)NCc1ccccn1,–,"inconclusive [activator, single point]"
COc1ccc(-c2cc(C(=O)NN)[nH]n2)cc1OC,inactive: -2.32%,–
CCOC(=O)c1ccc(CN(Cc2ccccc2)S(=O)(=O)c2cccc([N+](=O)[O-])c2)cc1,–,"inconclusive [inhibitor, partial curve]"
Cn1c(SCC(=O)c2ccc3c(c2)OCCO3)nnc1C(F)(F)F,inactive: -7.06% [at 57.5 µM],–
COc1cc(OC)c2c(C)cc(=O)oc2c1C(CCN1CCOCC1)c1ccc(N(C)C)cc1 (stereo not drawn),–,"inconclusive [inhibitor, partial curve]"
C#Cc1ccc(C(=O)Nc2ccc(N3CCC(C)CC3)c(C(N)=O)c2)cc1,–,"inconclusive [activator, full curve, poor fit]"
